{"source": "paper PMC12136788", "binders": {"B1": {"name": "chr2:189754195:189754303:-|CDS|ENSG00000128694|unk|total|mutant (ssRNA)", "RNA": "GGGAGUUCUACAGUCCGACGAUCCCAGAGUGCUCCACCAUGAGUGGUGGGAAAGCCACCGAACAUUUGGCCAAACAAGGAAACCGAUUUCAUUUUGACAUCAAACCUCCCUUGCAUCAUGCUAAAAAUUGUGAUUUUUCUUUUCAACAGAGGAUUGAGCAUCA"}, "B2": {"name": "chr8:116846039:116846140:-|3pUTR|ENSG00000164754|msi1|FALSE|bound_elsewhere (ssRNA)", "RNA": "GGGAGUUCUACAGUCCGACGAUCACAUUCAAUAUGAUGUGCCUGUAAACCAAGGAGUUUUCCCCGUUUGUAAAAAGACAUUGUAGAUAAUUGAAUGUUUGAUUUUAGAAAGGUCAUUAGUUUCUUGUUACACAUUUUGUUAGUCAACAGAGGAUUGAGCAUCA"}, "B3": {"name": "chr5:60870179:60870280:-|3pUTR|ENSG00000049167|unk|FALSE|unique (ssRNA)", "RNA": "GGGAGUUCUACAGUCCGACGAUCUCUCCUUGCCCUUUUUGUUUUGUUUUGUUUCAAUUCUUAGAACUGUAGUUGGCAUGUAGUAGGUGCUUAAUAAUUACUUGUUUUGUUGUUUCUGUCCUAUACUUUGAGAGUUUGUGUUUGCAACAGAGGAUUGAGCAUCA"}, "B4": {"name": "chr1:183142599:183142700:+|CDS|ENSG00000135862|msi1|total|mutant (ssRNA)", "RNA": "GGGAGUUCUACAGUCCGACGAUCAACGAGAUUGAAGGCACCCUAAACAAAGCCAAAGAUGAAAUGAAGGUCAGCGAUCUUGACCGGAAAGUGUCUGACCUGGAGAAUGAAGCCAAGAAGCAGGAGGCUGCCAUCAUGGACUAUCAACAGAGGAUUGAGCAUCA"}, "B5": {"name": "ENSG00000070961:be:win_6001|3pUTR|ENSG00000070961|bound_else_gene|NA|bound_elsewhere_windowed (ssRNA)", "RNA": "GGGAGUUCUACAGUCCGACGAUCCAAGACAUGCUUAGUGUGUAUUUCUCUCUUUGAGACACUGUAAUUUCUACCAGAAAUUUCCAGAGCAUUAUGUAGGUAGAAAAAAAUGCAAGCAAGCUGUUAAAGAUCUUGGAUCCCAUUCAACAGAGGAUUGAGCAUCA"}, "B6": {"name": "chr11:130144177:130144243:+|3pUTR|ENSG00000084234|msi1_unk|total|mutant (ssRNA)", "RNA": "GGGAGUUCUACAGUCCGACGAUCAUGAGGGUGUCCGCUGCUGCUUUCCUUCGGAAUCCAGUGCUUCCACAGAGAUCCGCCUGCCGCUUAUAUUUGACAUUCUUCACUGUCUGUUGUUUACCUACCGCCGCUUUUUACCGUUCACAACAGAGGAUUGAGCAUCA"}}, "note": "The other results are listed elsewhere or left out."}
{"molecular_target": "T1, UNK ZnF1-6 (called full-length) (human, UniProt Q9C0B0 30-357)", "T1 sequence": "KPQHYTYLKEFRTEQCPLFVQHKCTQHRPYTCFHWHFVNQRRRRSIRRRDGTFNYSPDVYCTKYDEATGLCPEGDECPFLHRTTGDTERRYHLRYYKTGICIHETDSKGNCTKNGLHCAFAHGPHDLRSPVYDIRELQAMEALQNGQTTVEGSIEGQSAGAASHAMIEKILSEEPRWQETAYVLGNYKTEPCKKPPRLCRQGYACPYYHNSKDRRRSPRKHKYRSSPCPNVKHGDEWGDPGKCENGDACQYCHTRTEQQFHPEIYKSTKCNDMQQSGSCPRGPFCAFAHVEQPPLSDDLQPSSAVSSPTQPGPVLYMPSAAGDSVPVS", "experiment": "nsRBNS (natural sequence RNA bind-n-seq); RBNS binding buffer (assumed for nsRBNS): 25 mM Tris pH 7.5, 150 mM KCl, 3 mM MgCl2, 0.01% Triton X-100, 500 ug/ml BSA, 20 U/ml SUPERase-In, 4 C; UNK is unkempt and MSI1 is Musashi-1; names of the RNAs are library labels; protein concentration not given here; high values mean tight binding", "units": {"binding signal": "enrichment R"}}
{"binder": "B1", "binding signal": 0.431}
{"binder": "B2", "binding signal": 5.22}
{"binder": "B3", "binding signal": 2.76}
{"binder": "B4", "binding signal": 0.732}
{"binder": "B5", "binding signal": 0.346}
{"binder": "B6", "binding signal": 0.644}
